# Experimental data from PubChem BioAssay AID485294 (National Center for Advancing Translational Sciences (NCATS), 2010).
# Among all 370,000 compounds or so, about 150 (0.041%) were called active. Inconclusive results, whose numbers are uncertain, are shown with a selection of clear calls. The call rests on the fitted dose curve; in most records, active means well fitted inhibition curve with a large enough effect; inconclusive means small, poorly fitted or top-dose-only effect; inactive means flat fitted curve, though single readings scatter. No potency is given beside an inconclusive call; the fits are too rough.
# Biological target: Beta-lactamase (Escherichia coli (strain K12)) (UniProt P00811)
# UniProt P00811, sequence (P00811 whole entry, looked up): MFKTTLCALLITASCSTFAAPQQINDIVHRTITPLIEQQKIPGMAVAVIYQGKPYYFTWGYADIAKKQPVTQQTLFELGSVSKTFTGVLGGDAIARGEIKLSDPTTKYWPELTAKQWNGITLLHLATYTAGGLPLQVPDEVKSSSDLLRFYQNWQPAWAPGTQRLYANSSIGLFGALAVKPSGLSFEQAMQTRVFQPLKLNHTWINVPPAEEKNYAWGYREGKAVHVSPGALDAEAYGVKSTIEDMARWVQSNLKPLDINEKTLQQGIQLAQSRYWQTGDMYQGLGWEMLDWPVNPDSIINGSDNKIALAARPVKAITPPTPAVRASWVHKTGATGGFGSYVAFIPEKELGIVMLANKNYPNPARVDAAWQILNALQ
# Experiment: qHTS Inhibitors of AmpC Beta-Lactamase (assay with detergent); further: nearly all actives have a fitted effect of over 25% in size;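 on activity change, negative = inhibition: 0% = no-compound wells and -100% = no-enzyme wells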
# Conditions: AmpC hydrolysis of nitrocefin, absorbance 480 nm, 0.01% Triton; activity change, negative = inhibition: at 114 µM (top of the series)
# Procedure, shortened: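 20 mM phosphate pH 7.0 + 0.01% (detergent screen) or 0.0001% Triton X-100; 5.3 nM AmpC reagent; cpd preinc 15 min RT; nitrocefin (800 uM stock) to start; A480 q20 s × 4 min; Activity was normalised to no-enzyme and no-compound control wells.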
# Potency means the concentration at half of the fitted maximal effect; tags describe the fitted curve by direction and shape.
SMILES,Potency,"activity change, negative = inhibition"
COc1ccc(Br)cc1C(=O)NC(=S)Nc1c(C)n(C)n(-c2ccccc2)c1=O,"inconclusive [inhibitor, full curve, poor fit]",–
CCOC(=O)/C(=N/Nc1ccc(OC)cc1)Sc1nnc(CCc2ccccc2)n1-c1ccccc1,–,inactive: -14.4%
Cc1cc(NC(=O)C(=O)NCCN2CCN(C(=O)c3cccs3)CC2)ccc1Br,"inconclusive [inhibitor, partial curve]",–
CCSc1nnc(N(CCC#N)CCC#N)s1,"inconclusive [inhibitor, full curve, poor fit]",–
COc1ccc(NC(=S)Nc2ccccc2)cn1,–,inactive: -13.6%
CNC(=O)C(=O)NCC1OCCN1S(=O)(=O)c1ccc([N+](=O)[O-])cc1 (stereo not given),"inconclusive [inhibitor, full curve, poor fit]",–
CC1=NN(c2ccccc2)C(=O)/C1=C/C=C/C=C/N(C)C,"inconclusive [inhibitor, single point]",–
CC[C@@]1(c2ccccc2OC)ON(c2ccccc2C(F)(F)F)C1=O,–,inactive: 0.974%
O=C1C2CC=CCC2C(=O)N1CNc1ccccc1 (stereo not given),"inconclusive [inhibitor, single point]",–
Cc1ccc(S(=O)(=O)N(Cc2cccc(Cl)c2)C(=O)N2CCN(C)CC2)cc1,"inconclusive [inhibitor, full curve, poor fit]",–
C[C@H]1CCC(=O)N(CCSc2ccc(Br)cc2)CC1,–,inactive: 1.1%
NC(=O)COc1c(-c2ccc(Br)o2)oc2ccccc2c1=O,"inconclusive [inhibitor, full curve, poor fit]",–
COc1ccc(CNCc2ccc(C)cc2)c(OC)c1,"inconclusive [inhibitor, full curve, poor fit]",–
COc1ccc(S(=O)(=O)NCC(=O)N(CC(=O)NCC2CCCO2)c2ccccc2C)cc1 (stereo not given),"inconclusive [inhibitor, partial curve]",–
CC1Cc2ccccc2N1C(=O)CSc1ccccc1 (stereo not given),–,inactive: -12%
O=C(NC(NC(=S)Nc1c(Cl)cccc1Cl)C(Cl)(Cl)Cl)OCc1ccccc1 (stereo not given),"inconclusive [inhibitor, single point]",–
Oc1csc(Cc2nc(-c3ccccc3F)cs2)n1,–,inactive: 0.11%
c1ccc2c(N3CCCCC3)nc(N3CCCC3)nc2c1,"inconclusive [inhibitor, partial curve]",–
CCOc1ccc(NC(=O)C(NS(=O)(=O)c2ccc3c(c2)CCN3C(C)=O)C(C)C)cc1 (stereo not given),–,inactive: 1.74%
Cc1c(NC(=S)N/N=C\c2ccccc2O)c(=O)n(-c2ccccc2)n1C,"inconclusive [inhibitor, full curve, poor fit]",–
CN1CCN(CC(O)COc2ccc(Cl)cc2)CC1 (stereo not given),–,inactive: -13.9%
COc1ccc(NC(=S)c2ccncc2)cc1,–,inactive: -7.24%
Nc1nc2n(n1)C(c1ccco1)CC(c1ccc(Cl)cc1)N2 (stereo not given),"inconclusive [inhibitor, partial curve, poor fit]",–
O=C(COc1cccc2ccccc12)N/N=C/c1ccncc1,"inconclusive [inhibitor, single point]",–

SMILES,Potency,"activity change, negative = inhibition"
COc1ccc(S(=O)(=O)NCC(=O)NCc2cc(=O)n(C)c(=O)n2C)cc1C,"inconclusive [inhibitor, partial curve, poor fit]",–
CC(C)(C)C1CCC(N2CCN(c3ccccc3)CC2)CC1 (stereo not given),"inconclusive [inhibitor, partial curve, poor fit]",–
COCCNC(=O)c1cc(-c2ccccc2OC)on1,"inconclusive [inhibitor, full curve, poor fit]",–
N#Cc1nc(Cc2cccc3ccccc23)oc1N1CCCCC1,"inconclusive [inhibitor, partial curve]",–
CCOC(=O)N1CCC(NC(=O)c2ccc3c(c2)N(Cc2ccc(F)cc2)C(=O)c2ccccc2S3(=O)=O)CC1,–,inactive: -12.6%
O=C(NC1CCCCC1)c1c(O)nc2sccn2c1=O,"inconclusive [inhibitor, full curve]",–
CC1C/C(=C/c2ccncc2)C(=O)/C(=C/c2ccncc2)C1 (stereo not given),"inconclusive [inhibitor, single point]",–
COc1cc(/C=C(/C#N)c2ccc(F)cc2)ccc1Oc1ccc([N+](=O)[O-])cn1,–,inactive: -18.9%
CN1CCN(S(=O)(=O)c2ccc(-c3ccc(Cl)cc3)cc2)CC1,"inconclusive [inhibitor, single point]",–
O=C(NC1CC(=O)N(c2ccc(F)cc2)C1)C(=O)c1c[nH]c2ccccc12 (stereo not given),"inconclusive [inhibitor, partial curve, poor fit]",–
COC(=O)Nc1ccc(S(=O)(=O)N2CCCC(C(=O)N3CCCCC3)C2)cc1 (stereo not given),"inconclusive [inhibitor, full curve]",–
Cc1ccc(S(=O)(=O)N(CC(=O)Nc2cccnc2)c2ccccc2C)cc1,"inconclusive [inhibitor, partial curve, poor fit]",–
CCc1ccc(C(=O)NCc2cccs2)s1,"inconclusive [inhibitor, single point]",–
CN(CC1COc2ccccc2O1)c1nc(-c2cccnc2)nc2ccccc12 (stereo not given),"inconclusive [inhibitor, full curve, poor fit]",–
COc1ccccc1CNC(=O)C1CCN(S(=O)(=O)c2ccc3c(c2)CC(C)N3C(C)=O)CC1 (stereo not given),"inconclusive [inhibitor, partial curve, poor fit]",–
Cc1cc(C)c(NC(=O)COc2nc3ccccc3nc2C)c(C)c1,"inconclusive [inhibitor, full curve, poor fit]",–
O=C(Nc1ccc(-c2n[nH]c(=S)o2)cc1)c1ccccc1,–,inactive: -5.89%
COc1ccc(CNC(=O)Cc2c(C)c3c(cc(C)c4c(C)c(C)oc43)oc2=O)cc1,–,inactive: 20.5%
CC1CCC(NC(=O)CCS(=O)(=O)c2ccc3c(c2)NC(=O)C(C)S3)CC1 (stereo not given),"inconclusive [inhibitor, full curve]",–
Clc1ccc(-c2nnsc2SCc2ccccc2)cc1,–,inactive: -7.17%
CC(=O)Nc1ccc(N(C(=O)c2ccco2)C(C(=O)NC2CCCCC2)c2ccccc2)cc1 (stereo not given),–,inactive: 0.163%
Cc1cc(-n2c(SCC(=O)Nc3ccc(F)c(F)c3)nc3n[nH]c(C)c3c2=N)ccc1Cl,–,inactive: -3.28%
COc1ccc(C(=O)OCC(=O)c2ccc[nH]2)cc1,"inconclusive [inhibitor, full curve, poor fit]",–
CCOC(=O)C(Cc1ccccc1)C(=O)NCc1ccccc1 (stereo not given),–,inactive: 7.93%

SMILES,Potency,"activity change, negative = inhibition"
COCCNC(=O)Cc1c(C)c2c(cc(C)c3c(C(C)(C)C)coc32)oc1=O,–,inactive: 1.42%
O=C(Nc1ccc(OC(F)F)c(Cl)c1)Nc1ccc2c(c1)OCO2,"inconclusive [inhibitor, partial curve]",–
Cc1cccc(CN2CCN(CC(=O)NCc3ccc(Cl)cc3)C2=O)c1,–,inactive: -1.72%
Cc1ccc(NC(=O)CN(c2ccccc2)S(=O)(=O)N(C)C)cc1,"inconclusive [inhibitor, full curve, poor fit]",–
Cc1sc(NC(=O)c2ccccc2)c(C(c2ccccn2)N2CCN(CCO)CC2)c1C (stereo not given),–,inactive: -1.61%
Cn1cnc(S(=O)(=O)NCc2ccc(Br)cc2)c1,–,inactive: -1.61%
COC(=O)C(NC(=O)CCc1c(C)nc2ncnn2c1C)C(C)C (stereo not given),"inconclusive [inhibitor, partial curve, poor fit]",–
COc1ccc(C(=O)C2CCCN(Cc3cn(C)nc3-c3ccccc3)C2)cc1F (stereo not given),–,inactive: 1.35%
Cc1n[nH]c(C)c1CCCCOc1ccc([N+](=O)[O-])cc1,"inconclusive [inhibitor, full curve, poor fit]",–
CCOC(=O)C(NC(=O)c1cccnc1)(Nc1cccc(C)n1)C(F)(F)F (stereo not given),"inconclusive [inhibitor, partial curve, poor fit]",–
CCOc1ccc(NC(=S)N2CCC(NC(=O)C3CCCCC3)CC2)cc1,"inconclusive [inhibitor, full curve, poor fit]",–
O=C(N/C(=C\c1cccnc1)C(=O)N1CCC(O)CC1)c1ccccc1,"inconclusive [inhibitor, single point]",–
CC(C)CC(c1nnnn1C1CCCCC1)N1CCN(c2ncccn2)CC1 (stereo not given),–,inactive: 10.6%
CSc1ccc2c(c1)C(N1CCN(C)CC1)Cc1ccccc1S2 (stereo not given),–,inactive: -9.39%
Cn1c(=O)c2c(SCC(=O)N3CCCc4ccccc43)nc(CC(C)(C)C)nc2n(C)c1=O,"inconclusive [inhibitor, full curve, poor fit]",–
Cc1ccc(Nc2cc(C)nc3ccc(C)cc23)cc1,"inconclusive [inhibitor, full curve, poor fit]",–
Cc1c(C(=O)OC2CCCC2)[nH]c2c1C(=O)CC(c1ccco1)C2 (stereo not given),"inconclusive [inhibitor, full curve, poor fit]",–
CC(C)CNC(=O)c1cccc2c1-c1ccccc1C2=O,"inconclusive [inhibitor, full curve, poor fit]",–
CCOC(=O)C1(Cc2ccccc2)CCCN(C2CCCC2)C1 (stereo not given),–,inactive: -3.98%
COc1ccc(N2CC(C(=O)NC3CC(C)(C)NC(C)(C)C3)CC2=O)cc1 (stereo not given),"inconclusive [inhibitor, full curve]",–
COc1cc([N+](=O)[O-])ccc1NC(=S)NC(=O)CC(C)(C)C,"inconclusive [inhibitor, single point]",–
Cc1ccc(NC(=O)CCC(=O)NNS(=O)(=O)c2ccc(Cl)cc2)cc1C,"inconclusive [inhibitor, full curve, poor fit]",–
